{"source": "EPA's CvTdb concentration-time database", "assay_in_all_cases": "concentration in plasma after dosing", "key": {"Rat [1]": {"system": "Rat", "conditions": "0.5 h; dosed: Isoeugenol; 17 mg/kg; iv; Male; F344/N"}, "Rat [2]": {"system": "Rat", "conditions": "dosed: Isoeugenol, 140 mg/kg, oral, Female, F344/N"}, "Rat [3]": {"system": "Rat", "conditions": "dosed: Isoeugenol, 17 mg/kg, iv, Female, F344/N"}, "Rat [4]": {"system": "Rat", "conditions": "dosed: Isoeugenol, 140 mg/kg, oral, Male, F344/N"}, "Rat [5]": {"system": "Rat", "conditions": "dosed: Isoeugenol, 17 mg/kg, iv, Female, F344/N", "remark": "listed apart in the source"}, "Rat [6]": {"system": "Rat", "conditions": "20 min; dosed: Isoeugenol; 17 mg/kg; iv; Male; F344/N"}, "Rat [7]": {"system": "Rat", "conditions": "dosed: Isoeugenol, 70 mg/kg, oral, Female, F344/N"}, "Rat [8]": {"system": "Rat", "conditions": "dosed: Isoeugenol, 17 mg/kg, iv, Female, F344/N", "remark": "listed apart in the source"}, "Rat [9]": {"system": "Rat", "conditions": "dosed: Isoeugenol, 70 mg/kg, oral, Male, F344/N"}, "Rat [10]": {"system": "Rat", "conditions": "192 h; dosed: Perfluorohexane-1-sulphonic acid – potassium salt; 16 mg/kg; oral; Female; F344"}, "Rat [11]": {"system": "Rat", "conditions": "dosed: Perfluorohexane-1-sulphonic acid – potassium salt, 32 mg/kg, oral, Male, F344"}, "Rat [12]": {"system": "Rat", "conditions": "dosed: Perfluorohexane-1-sulphonic acid – potassium salt, 32 mg/kg, oral, Male, Harlan Sprague Dawley"}, "Rat [13]": {"system": "Rat", "conditions": "dosed: Perfluorohexane-1-sulphonic acid – potassium salt, 4 mg/kg, Female, F344"}, "Rat [14]": {"system": "Rat", "conditions": "96 h; dosed: Perfluorohexane-1-sulphonic acid – potassium salt; 16 mg/kg; oral; Female; Harlan Sprague Dawley"}, "Rat [15]": {"system": "Rat", "conditions": "dosed: Perfluorohexane-1-sulphonic acid – potassium salt, 4 mg/kg, Female, F344", "remark": "listed apart in the source"}, "Rat [16]": {"system": "Rat", "conditions": "528 h; dosed: Perfluorohexane-1-sulphonic acid – potassium salt; 16 mg/kg; oral; Female; F344"}, "Rat [17]": {"system": "Rat", "conditions": "dosed: Perfluorohexane-1-sulphonic acid – potassium salt, 4 mg/kg, Female, Harlan Sprague Dawley"}, "Rat [18]": {"system": "Rat", "conditions": "24 h; dosed: Perfluorohexane-1-sulphonic acid – potassium salt; 16 mg/kg; oral; Female; F344"}, "Rat [19]": {"system": "Rat", "conditions": "dosed: Perfluorohexane-1-sulphonic acid – potassium salt, 4 mg/kg, Female, F344", "remark": "listed apart in the source"}, "Rat [20]": {"system": "Rat", "conditions": "dosed: Perfluorohexane-1-sulphonic acid – potassium salt, 4 mg/kg, oral, Female, Harlan Sprague Dawley"}, "Rat [21]": {"system": "Rat", "conditions": "dosed: Perfluorohexane-1-sulphonic acid – potassium salt, 4 mg/kg, Female, F344", "remark": "listed apart in the source"}, "Rat [22]": {"system": "Rat", "conditions": "3 h; dosed: Fluorotelomer alcohol 8+2; 40 mg/kg; oral; Female; Harlan Sprague Dawley"}, "Rat [23]": {"system": "Rat", "conditions": "dosed: Fluorotelomer alcohol 8+2, 40 mg/kg, oral, Female, Harlan Sprague Dawley"}, "Rat [24]": {"system": "Rat", "conditions": "dosed: Fluorotelomer alcohol 8+2, 80 mg/kg, oral, Female, Harlan Sprague Dawley"}, "Rat [25]": {"system": "Rat", "conditions": "dosed: Fluorotelomer alcohol 8+2, 160 mg/kg, oral, Female, Harlan Sprague Dawley"}, "Rat [26]": {"system": "Rat", "conditions": "6 h; dosed: Fluorotelomer alcohol 8+2; 80 mg/kg; oral; Female; Harlan Sprague Dawley"}, "Rat [27]": {"system": "Rat", "conditions": "dosed: Fluorotelomer alcohol 8+2, 48 mg/kg, oral, Male, Harlan Sprague Dawley"}, "Rat [28]": {"system": "Rat", "conditions": "1 h; dosed: Fluorotelomer alcohol 8+2; 80 mg/kg; oral; Female; Harlan Sprague Dawley"}, "Rat [29]": {"system": "Rat", "conditions": "12 h; dosed: Fluorotelomer alcohol 8+2; 24 mg/kg; oral; Male; Harlan Sprague Dawley"}, "Rat [30]": {"system": "Rat", "conditions": "dosed: Fluorotelomer alcohol 8+2, 40 mg/kg, oral, Female, Harlan Sprague Dawley", "remark": "listed apart in the source"}, "Rat [31]": {"system": "Rat", "conditions": "dosed: Fluorotelomer alcohol 8+2, 160 mg/kg, oral, Female, Harlan Sprague Dawley", "remark": "listed apart in the source"}, "Rat [32]": {"system": "Rat", "conditions": "12 h; dosed: Fluorotelomer alcohol 8+2; 80 mg/kg; oral; Female; Harlan Sprague Dawley"}, "Rat [33]": {"system": "Rat", "conditions": "3 h; dosed: Fluorotelomer alcohol 8+2; 48 mg/kg; oral; Male; Harlan Sprague Dawley"}}, "note": "This continues a long series; more values of the same kind are listed elsewhere."}
{"smiles": "C/C=C/c1ccc(O)c(OC)c1", "note": "[Isoeugenol]", "values": [{"measurement": "concentration in plasma", "setting": "Rat [1]", "result": 1050, "unit": "ng/mL"}, {"measurement": "concentration in plasma", "setting": "Rat [2]; 1 h", "result": 1030, "unit": "ng/mL"}, {"measurement": "concentration in plasma", "setting": "Rat [2]; 4 h", "result": 595, "unit": "ng/mL"}, {"measurement": "concentration in plasma", "setting": "Rat [3]; 20 min", "result": 1880, "unit": "ng/mL"}, {"measurement": "concentration in plasma", "setting": "Rat [3]; 1.5 h", "result": 135, "unit": "ng/mL"}, {"measurement": "concentration in plasma", "setting": "Rat [4]; 2 min", "result": 1340, "unit": "ng/mL"}, {"measurement": "concentration in plasma", "setting": "Rat [4]; 6 h", "result": 308, "unit": "ng/mL"}, {"measurement": "concentration in plasma", "setting": "Rat [5]; 0.5 h", "result": 895, "unit": "ng/mL"}, {"measurement": "concentration in plasma", "setting": "Rat [5]; 3 h", "result": 74.3, "unit": "ng/mL"}, {"measurement": "concentration in plasma", "setting": "Rat [6]", "result": 1900, "unit": "ng/mL"}, {"measurement": "concentration in plasma", "setting": "Rat [7]; 2 min", "result": 2050, "unit": "ng/mL"}, {"measurement": "concentration in plasma", "setting": "Rat [7]; 1.5 h", "result": 236, "unit": "ng/mL"}, {"measurement": "concentration in plasma", "setting": "Rat [8]; 5 min", "result": 6480, "unit": "ng/mL"}, {"measurement": "concentration in plasma", "setting": "Rat [8]; 5 h", "result": 30, "unit": "ng/mL"}, {"measurement": "concentration in plasma", "setting": "Rat [9]; 0.75 h", "result": 199, "unit": "ng/mL"}, {"measurement": "concentration in plasma", "setting": "Rat [9]; 8 h", "result": 100, "unit": "ng/mL"}]}
{"smiles": "O=S(=O)([O-])C(F)(F)C(F)(F)C(F)(F)C(F)(F)C(F)(F)C(F)(F)F.[K+]", "note": "[Perfluorohexane-1-sulphonic acid – potassium salt]", "values": [{"measurement": "concentration in plasma", "setting": "Rat [10]", "result": 67100, "unit": "ng/mL"}, {"measurement": "concentration in plasma", "setting": "Rat [11]; 3 h", "result": 141000, "unit": "ng/mL"}, {"measurement": "concentration in plasma", "setting": "Rat [11]; 48 h", "result": 53100, "unit": "ng/mL"}, {"measurement": "concentration in plasma", "setting": "Rat [11]; 528 h", "result": 51.9, "unit": "ng/mL"}, {"measurement": "concentration in plasma", "setting": "Rat [12]; 0.25 h", "result": 47900, "unit": "ng/mL"}, {"measurement": "concentration in plasma", "setting": "Rat [12]; 12 h", "result": 187000, "unit": "ng/mL"}, {"measurement": "concentration in plasma", "setting": "Rat [12]; 528 h", "result": 43700, "unit": "ng/mL"}, {"measurement": "concentration in plasma", "setting": "Rat [13]; 0.25 h", "result": 43000, "unit": "ng/mL"}, {"measurement": "concentration in plasma", "setting": "Rat [13]; 6 h", "result": 30700, "unit": "ng/mL"}, {"measurement": "concentration in plasma", "setting": "Rat [13]; 528 h", "result": 10100, "unit": "ng/mL"}, {"measurement": "concentration in plasma", "setting": "Rat [14]", "result": 27000, "unit": "ng/mL"}, {"measurement": "concentration in plasma", "setting": "Rat [15]; 1 h", "result": 39900, "unit": "ng/mL"}, {"measurement": "concentration in plasma", "setting": "Rat [15]; 192 h", "result": 13900, "unit": "ng/mL"}, {"measurement": "concentration in plasma", "setting": "Rat [16]", "result": 37200, "unit": "ng/mL"}, {"measurement": "concentration in plasma", "setting": "Rat [17]; 1 h", "result": 36300, "unit": "ng/mL"}, {"measurement": "concentration in plasma", "setting": "Rat [17]; 48 h", "result": 7970, "unit": "ng/mL"}, {"measurement": "concentration in plasma", "setting": "Rat [18]", "result": 117000, "unit": "ng/mL"}, {"measurement": "concentration in plasma", "setting": "Rat [19]; 0.5 h", "result": 43700, "unit": "ng/mL"}, {"measurement": "concentration in plasma", "setting": "Rat [19]; 12 h", "result": 25000, "unit": "ng/mL"}, {"measurement": "concentration in plasma", "setting": "Rat [19]; 864 h", "result": 7990, "unit": "ng/mL"}, {"measurement": "concentration in plasma", "setting": "Rat [20]; 3 h", "result": 23300, "unit": "ng/mL"}, {"measurement": "concentration in plasma", "setting": "Rat [20]; 48 h", "result": 11000, "unit": "ng/mL"}, {"measurement": "concentration in plasma", "setting": "Rat [21]; 0.25 h", "result": 52900, "unit": "ng/mL"}, {"measurement": "concentration in plasma", "setting": "Rat [21]; 12 h", "result": 21700, "unit": "ng/mL"}, {"measurement": "concentration in plasma", "setting": "Rat [21]; 288 h", "result": 57.2, "unit": "ng/mL"}]}
{"smiles": "O=C(O)CCC(F)(F)C(F)(F)C(F)(F)C(F)(F)C(F)(F)C(F)(F)C(F)(F)F", "note": "[Fluorotelomer acid 7+3]", "values": [{"measurement": "concentration in plasma", "setting": "Rat [22]", "result": 3180, "unit": "ng/mL"}, {"measurement": "concentration in plasma", "setting": "Rat [23]; 48 h", "result": 183, "unit": "ng/mL"}, {"measurement": "concentration in plasma", "setting": "Rat [23]; 192 h", "result": 83.6, "unit": "ng/mL"}, {"measurement": "concentration in plasma", "setting": "Rat [24]; 0.75 h", "result": 1330, "unit": "ng/mL"}, {"measurement": "concentration in plasma", "setting": "Rat [24]; 48 h", "result": 970, "unit": "ng/mL"}, {"measurement": "concentration in plasma", "setting": "Rat [25]; 48 h", "result": 2260, "unit": "ng/mL"}, {"measurement": "concentration in plasma", "setting": "Rat [25]; 192 h", "result": 86.5, "unit": "ng/mL"}, {"measurement": "concentration in plasma", "setting": "Rat [26]", "result": 6100, "unit": "ng/mL"}, {"measurement": "concentration in plasma", "setting": "Rat [27]; 5 min", "result": 0.916, "unit": "ng/mL"}, {"measurement": "concentration in plasma", "setting": "Rat [27]; 3 h", "result": 1990, "unit": "ng/mL"}, {"measurement": "concentration in plasma", "setting": "Rat [28]", "result": 1550, "unit": "ng/mL"}, {"measurement": "concentration in plasma", "setting": "Rat [29]", "result": 370, "unit": "ng/mL"}, {"measurement": "concentration in plasma", "setting": "Rat [30]; 0.75 h", "result": 1180, "unit": "ng/mL"}, {"measurement": "concentration in plasma", "setting": "Rat [30]; 12 h", "result": 850, "unit": "ng/mL"}, {"measurement": "concentration in plasma", "setting": "Rat [31]; 0.25 h", "result": 79.7, "unit": "ng/mL"}, {"measurement": "concentration in plasma", "setting": "Rat [31]; 6 h", "result": 7350, "unit": "ng/mL"}, {"measurement": "concentration in plasma", "setting": "Rat [32]", "result": 1530, "unit": "ng/mL"}, {"measurement": "concentration in plasma", "setting": "Rat [33]", "result": 1280, "unit": "ng/mL"}]}
